Data: the RNAGym collection of RNA variant scans (doi:10.1073/pnas.2313332121)
This sample is rich in variants without activity.

B1: TPR 5TU (parent)
chain: GGAUCUUCUCGAUCUAACAAAAAAGACAAAUCUGCCACAAAGCUUGAGAGCAUCUUCGGAUGCAGAGGCGGCAGCCUUCGGUGGCGCGAUAGCGCCAACGUUCUCAACUAUGACACGCAAAACGCGUGCUCCGUUGAAUGGAGUUUAUCAUG

Variants of: B1
Assay: polymerase ribozyme fitness, log enrichment relative to wild type (log ratio); higher = more active; in vitro selection for triplet polymerase activity
How it was run: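 Genotype fitness is the logarithm of its enrichment divided by wild-type enrichment, using inverse-variance-weighted averages of replicates. That logarithm is base 2. Enrichment was measured by Illumina sequencing of input and output libraries from one triplicate in vitro selection round, with frozen incubation at −7 °C, on PCR-built, transcribed mutant libraries of each subunit of a heterodimeric triplet polymerase ribozyme, retaining genotypes with ≥10 input reads and ≥1 read per output.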

For A30C G59C A60G U61G C116G C125G, which “polymerase ribozyme fitness (log ratio)” value is on record?
Its value is no more than -4.2.

For A30C G68C C87A C105G A107U G117C A150C, which “polymerase ribozyme fitness (log ratio)” value is on record?
Its value is no more than -4.2.

For A30C G81A G84A G100C A150G, which “polymerase ribozyme fitness (log ratio)” value is on record?
The value was no more than -4.2.

Which “polymerase ribozyme fitness (log ratio)” value does the source give for A30C G84A A98C A142U here?
Its value is no more than -4.2.

With A30C G84A G94U G128U as the variant, how does the “polymerase ribozyme fitness (log ratio)” value read?
The value was no more than -4.2.

Which “polymerase ribozyme fitness (log ratio)” value does the source give for A30C G84A U148C here?
The value was no more than -4.2.

With A30C G92A G100C as the variant, how does the “polymerase ribozyme fitness (log ratio)” value read?
Its value is no more than -4.2.

Which “polymerase ribozyme fitness (log ratio)” value does the source give for A30C G94U G117U U135G G136A here?
Its value is no more than -4.2.

Which “polymerase ribozyme fitness (log ratio)” value does the source give for A30C U31G G48C A64C U90G here?
Its value is no more than -4.2.

With A30C U31G G59U C95A C129U as the variant, how does the “polymerase ribozyme fitness (log ratio)” value read?
The value was no more than -4.2.

Which “polymerase ribozyme fitness (log ratio)” value does the source give for A30C U31G U82A G92C C103A U134G here?
Its value is no more than -4.2.

With A30C U33A C75A U82A G83A C95G A138G as the variant, how does the “polymerase ribozyme fitness (log ratio)” value read?
Its value is no more than -4.2.

With A30C U45A A91C C96A as the variant, how does the “polymerase ribozyme fitness (log ratio)” value read?
Its value is no more than -4.2.

Which “polymerase ribozyme fitness (log ratio)” value does the source give for A30C U53A C75A C76G C114U here?
The value was no more than -4.2.

With A30C U53C G68U U109G U135G U148G as the variant, how does the “polymerase ribozyme fitness (log ratio)” value read?
The value was no more than -4.2.

Which “polymerase ribozyme fitness (log ratio)” value does the source give for A30C U53G C76G U90C G136A C149A here?
The value was no more than -4.2.

With A30C U55A C63G C69A A97C G100U A115G A119G as the variant, how does the “polymerase ribozyme fitness (log ratio)” value read?
Its value is no more than -4.2.

With A30C U55C A98G C118U A147C as the variant, how does the “polymerase ribozyme fitness (log ratio)” value read?
Its value is no more than -4.2.

With A30C U55G C95A U135G U148A as the variant, how does the “polymerase ribozyme fitness (log ratio)” value read?
The value was -3.85.

With A30C U56A G80U C93U C95G G100U A110C A115C U135A U139G as the variant, how does the “polymerase ribozyme fitness (log ratio)” value read?
The value was no more than -4.2.

Which “polymerase ribozyme fitness (log ratio)” value does the source give for A30C U111G C129U G136U here?
The value was no more than -4.2.

With A30G A39U A47C U56A G94C C95U C99U A107U G126A as the variant, how does the “polymerase ribozyme fitness (log ratio)” value read?
The value was no more than -4.2.

Which “polymerase ribozyme fitness (log ratio)” value does the source give for A30G A40C A47G G50U C96U here?
The value was no more than -4.2.

For A30G A40C C87G G152U, which “polymerase ribozyme fitness (log ratio)” value is on record?
The value was no more than -4.2.

With A30G A40C G42A C54A G67C U139A U148A as the variant, how does the “polymerase ribozyme fitness (log ratio)” value read?
The value was no more than -4.2.

Which “polymerase ribozyme fitness (log ratio)” value does the source give for A30G A40G G62A G68A C118U U146A here?
Its value is no more than -4.2.

With A30G A41C as the variant, how does the “polymerase ribozyme fitness (log ratio)” value read?
The value was -3.51.

For A30G A41G A47C C72G G86U A98U C125A, which “polymerase ribozyme fitness (log ratio)” value is on record?
Its value is no more than -4.2.

With A30G A41U U45A G50A C51U U53G A91C C108G C114G as the variant, how does the “polymerase ribozyme fitness (log ratio)” value read?
Its value is no more than -4.2.

For A30G A47U C95U U135G G140C, which “polymerase ribozyme fitness (log ratio)” value is on record?
The value was no more than -4.2.

For A30G A49C C75U C95G C99A U144A, which “polymerase ribozyme fitness (log ratio)” value is on record?
The value was no more than -4.2.

Which “polymerase ribozyme fitness (log ratio)” value does the source give for A30G A49C C93G here?
Its value is no more than -4.2.

With A30G A49C G58C G67A C96G A113U A120G as the variant, how does the “polymerase ribozyme fitness (log ratio)” value read?
Its value is no more than -4.2.

For A30G A49C G88U A110G, which “polymerase ribozyme fitness (log ratio)” value is on record?
Its value is no more than -4.2.

Which “polymerase ribozyme fitness (log ratio)” value does the source give for A30G A49U A98U here?
The value was no more than -4.2.

Which “polymerase ribozyme fitness (log ratio)” value does the source give for A30G A49U C85G C103U A110C here?
The value was no more than -4.2.

Which “polymerase ribozyme fitness (log ratio)” value does the source give for A30G A52C G83A A89G C116U A150G U151G here?
The value was no more than -4.2.

With A30G A64C G80U G94A as the variant, how does the “polymerase ribozyme fitness (log ratio)” value read?
The value was no more than -4.2.

Which “polymerase ribozyme fitness (log ratio)” value does the source give for A30G A66C G84A A150C here?
The value was no more than -4.2.

For A30G A91C C96U A122G G141C, which “polymerase ribozyme fitness (log ratio)” value is on record?
The value was no more than -4.2.

For A30G A110C, which “polymerase ribozyme fitness (log ratio)” value is on record?
Its value is no more than -4.2.

For A30G C32A G50C C79A G84A A98C, which “polymerase ribozyme fitness (log ratio)” value is on record?
The value was no more than -4.2.

With A30G C32U G94C A115C as the variant, how does the “polymerase ribozyme fitness (log ratio)” value read?
The value was no more than -4.2.

For A30G C35A C85U A121G, which “polymerase ribozyme fitness (log ratio)” value is on record?
The value was no more than -4.2.

For A30G C36A A39G A98U, which “polymerase ribozyme fitness (log ratio)” value is on record?
Its value is no more than -4.2.

For A30G C36G A37C A64U G68A A91G A98U A121G U145C C149U, which “polymerase ribozyme fitness (log ratio)” value is on record?
Its value is no more than -4.2.

Which “polymerase ribozyme fitness (log ratio)” value does the source give for A30G C36U A39C A47U A49U A60C G74A G80U C99A here?
The value was no more than -4.2.

For A30G C43U G83U U109C A138G U145C C149A, which “polymerase ribozyme fitness (log ratio)” value is on record?
Its value is no more than -4.2.

Which “polymerase ribozyme fitness (log ratio)” value does the source give for A30G C51A G92A U135G here?
The value was no more than -4.2.

With A30G C51A U55A C57A as the variant, how does the “polymerase ribozyme fitness (log ratio)” value read?
The value was no more than -4.2.

With A30G C51A U78C C85A C93A C114A as the variant, how does the “polymerase ribozyme fitness (log ratio)” value read?
The value was no more than -4.2.

Which “polymerase ribozyme fitness (log ratio)” value does the source give for A30G C54G U134G G140C here?
The value was no more than -4.2.

With A30G C63U C87A C105U as the variant, how does the “polymerase ribozyme fitness (log ratio)” value read?
The value was no more than -4.2.

Which “polymerase ribozyme fitness (log ratio)” value does the source give for A30G C75G C93U A121G here?
Its value is no more than -4.2.

Which “polymerase ribozyme fitness (log ratio)” value does the source give for A30G C75U C87A C103G A122C C123U here?
The value was no more than -4.2.

Which “polymerase ribozyme fitness (log ratio)” value does the source give for A30G C76A A91G G100A here?
Its value is no more than -4.2.

Which “polymerase ribozyme fitness (log ratio)” value does the source give for A30G C76U U135G here?
Its value is no more than -4.2.

With A30G C79A as the variant, how does the “polymerase ribozyme fitness (log ratio)” value read?
The value was no more than -4.2.

With A30G C85G A121U as the variant, how does the “polymerase ribozyme fitness (log ratio)” value read?
The value was no more than -4.2.

For A30G C85G C116U U146C, which “polymerase ribozyme fitness (log ratio)” value is on record?
The value was no more than -4.2.

For A30G C85U, which “polymerase ribozyme fitness (log ratio)” value is on record?
The value was -3.06.

With A30G C85U C96G A115U as the variant, how does the “polymerase ribozyme fitness (log ratio)” value read?
Its value is no more than -4.2.

Which “polymerase ribozyme fitness (log ratio)” value does the source give for A30G C85U G128A here?
The value was no more than -4.2.

Which “polymerase ribozyme fitness (log ratio)” value does the source give for A30G C93U here?
Its value is no more than -4.2.

For A30G G42C U45A A64G G68A G86U G117A, which “polymerase ribozyme fitness (log ratio)” value is on record?
Its value is no more than -4.2.

For A30G G46A A49G A110U U127A, which “polymerase ribozyme fitness (log ratio)” value is on record?
The value was no more than -4.2.

With A30G G48A C87G A147U as the variant, how does the “polymerase ribozyme fitness (log ratio)” value read?
The value was no more than -4.2.

Which “polymerase ribozyme fitness (log ratio)” value does the source give for A30G G50U G88A G140C A147U here?
Its value is no more than -4.2.

Which “polymerase ribozyme fitness (log ratio)” value does the source give for A30G G50U U55G U82A here?
Its value is no more than -4.2.

Which “polymerase ribozyme fitness (log ratio)” value does the source give for A30G G58U C76A A89U C105U A121U U146C here?
The value was no more than -4.2.

For A30G G68A C79G C95U C114G U134A, which “polymerase ribozyme fitness (log ratio)” value is on record?
Its value is no more than -4.2.

For A30G G68U G71C A97G, which “polymerase ribozyme fitness (log ratio)” value is on record?
The value was no more than -4.2.

Which “polymerase ribozyme fitness (log ratio)” value does the source give for A30G G70A U77C G86U G141A U146C C149U here?
The value was no more than -4.2.

For A30G G71A G92A C125G, which “polymerase ribozyme fitness (log ratio)” value is on record?
The value was no more than -4.2.

For A30G G74C G83U A106C, which “polymerase ribozyme fitness (log ratio)” value is on record?
Its value is no more than -4.2.

For A30G G74U C93A U102C U127G C129G U144G, which “polymerase ribozyme fitness (log ratio)” value is on record?
The value was no more than -4.2.

For A30G G84U C118A A121C, which “polymerase ribozyme fitness (log ratio)” value is on record?
Its value is no more than -4.2.

Which “polymerase ribozyme fitness (log ratio)” value does the source give for A30G G117U U135G here?
Its value is no more than -4.2.

For A30G G128U C129G, which “polymerase ribozyme fitness (log ratio)” value is on record?
Its value is no more than -4.2.

With A30G U44A A49U C87U G88A G92A A115U as the variant, how does the “polymerase ribozyme fitness (log ratio)” value read?
Its value is no more than -4.2.

With A30G U53A A110U U127C A147C as the variant, how does the “polymerase ribozyme fitness (log ratio)” value read?
Its value is no more than -4.2.

For A30G U55A G81C C95A A97U A115C G124A, which “polymerase ribozyme fitness (log ratio)” value is on record?
Its value is no more than -4.2.

Which “polymerase ribozyme fitness (log ratio)” value does the source give for A30G U55A G83C U135G here?
The value was no more than -4.2.
